According to the supplement of paper PMC10338343:
± gives the standard deviation. Only a part is listed here, and it is no random draw.

tested on: MIWI (PIWIL1) piRISC loaded with piRNA #1 (30 nt); assay: pre-steady-state target cleavage rate (min^-1); MIWI and MILI are mouse PIWI proteins and EfPiwi is from a freshwater sponge; tags in brackets are library labels; higher = faster piRNA-guided slicing of the target; conditions: guide: piRNA #1 5'p-UGAGGUAGUAGGUUGUAUAGUAUCCAGAGG; auxiliary factor: 500 nM mouse GTSF1
Summary of the method: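 Cleave-'n-Seq measured uncleaved targets by sequencing after a transcribed, DNA-blocked target RNA library […] was mixed with 1 nM active affinity-purified piRISC holding one synthetic guide, with or without 500 nM GTSF1 partner protein, at 33 °C in HEPES–potassium acetate buffer for 0–8 or 0–960 min. Counts were normalised to depth and to weakly complementary targets, three trials were pooled, and k3 was capped at 0.0001 min^-1. A burst-and-steady-state fit gave the pre-steady-state cleavage rate.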
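Further: 1 nM active piRISC with 0.1 nM target library at 33 °C single turnover.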

GGAGUGGAUACUAUAGAACCUUCUACCUCA and GGACUGGAUACUAUUCAACCAACUACCUCA are within error of each other in “pre-steady-state target cleavage rate” value: 0.0669 ± 0.01 for the first, 0.0795 ± 0.0087 for the second.

GGAGACCUUACUAUUCAACCUACAACCUCA and GGAGACCUAUCUAUACAACCUACGACCUCA are within error of each other in “pre-steady-state target cleavage rate” value: 0.258 ± 0.029 for the first, 0.315 ± 0.035 for the second.

Going from GCUCUGGAUACUAUAAAACCUACUACCUCA to GGAGUGGUUACUAUACAACCAACUACCUCA, the “pre-steady-state target cleavage rate” value falls from 1.6 ± 0.094 to 0.117 ± 0.0086.

First: GGAGACCUUACUAUACUACCAACUACCUCA
Second: GGAGAGGAUACUAUACAACGCUACUACCUCA
The “pre-steady-state target cleavage rate” value of the first is higher: 0.00369 ± 0.0019 for the first, < 0.0001 for the second.

Compared with GGAGACCUUACUAUACAACCUACGACCUCA, GGACUGGAUACUAUACCAACCUACUACCUCA is lower in “pre-steady-state target cleavage rate” value: 0.817 ± 0.083 for the first, 0.0343 ± 0.012 for the second.

Going from GGAGACCUUACUAUACAAGCUAGUACCUCA to GGAGAGGAUACAAUACAUCCUACUACCUCA, the “pre-steady-state target cleavage rate” value rises from 0.471 ± 0.033 to 0.691 ± 0.031.

First: GGAGACGAUUCUAUACAUCCUACUACCUCA
Second: GGUCUGGAUAGUAUACAACCUACAACCUCA
The “pre-steady-state target cleavage rate” value of the first is higher: 1.29 ± 0.088 for the first, 0.499 ± 0.046 for the second.

Compared with GGAGACCUUACUAUACAACCAACUACCUGA, GGAGACCUAUCAAUACAACCUACUAGCUCA is lower in “pre-steady-state target cleavage rate” value: 0.0543 ± 0.0098 for the first, 0.00375 ± 0.0034 for the second.

First: GGAGACCUAACUAUACAACGUACUACCACA
Second: GCUCUGGUUACUAUACAACCUACUAGCUCA
The “pre-steady-state target cleavage rate” value of the first is lower: 0.165 ± 0.031 for the first, 0.565 ± 0.055 for the second.

Compared with GGAGACCUUACUAGUACAACCUACUACCUCA, GGAGACCUUACUAUAGAACCUACUACGUCA is lower in “pre-steady-state target cleavage rate” value: 0.514 ± 0.075 for the first, 0.327 ± 0.046 for the second.

First: GGACUGGAUACUAUACAACCUUCUAGCUCA
Second: GGUCUGGAUACUAUACAACCAUGAUGGAGA [g11:g28:cont:t1A]
The “pre-steady-state target cleavage rate” value of the first is higher: 0.00299 ± 0.0024 for the first, < 0.0001 for the second.

First: GGAGACCUUAGUAUACAACCUACUUCCUCA
Second: GGUCUGGAUACAAUACAUCCUACUACCUCA
The “pre-steady-state target cleavage rate” value of the first is lower: 0.0429 ± 0.0098 for the first, 1.17 ± 0.068 for the second.

First: GGAGACGUUACUAUACAACCUACUACGUCA
Second: GGAGACGAAACUUUACAACCUACUACCUCA
The “pre-steady-state target cleavage rate” value of the first is lower: 0.497 ± 0.072 for the first, 0.744 ± 0.077 for the second.

Going from GGUCUGGAUACUAUAGAACCUUCUACCUCA to GCUCUGGAUACUAUACAACCUACUGCCUCA, the “pre-steady-state target cleavage rate” value rises from 0.0303 ± 0.0067 to 1.5 ± 0.11.

GGACUGGAUACUAUACAACCUAAUACCUCA and GGAGACCUUUCUAUACAACCUACUACGUCA are within error of each other in “pre-steady-state target cleavage rate” value: 0.483 ± 0.052 for the first, 0.533 ± 0.04 for the second.

First: GGAGUGGUAUCUAUACAACCUACUACCUCA
Second: GGAGAGGAUAGUUUACAACCUACUACCUCA
The “pre-steady-state target cleavage rate” value of the first is higher: 1.12 ± 0.062 for the first, 0.163 ± 0.024 for the second.

Going from GGAGACGAUAGUAUAGAACCUACUACCUCA to GGAGACCAUUCUAUACAACCUACAACCUCA, the “pre-steady-state target cleavage rate” value falls from 1.06 ± 0.078 to 0.667 ± 0.075.

Going from GGAGAGGAUACUAAACAACCUACUAGCUCA to CCUCUGCAUACUAUACAAGCUACUACCUCA, the “pre-steady-state target cleavage rate” value rises from 0.265 ± 0.03 to 1.57 ± 0.078.

Going from GCUCUCGAUACUAUAGAACCUACUACCUCA to GGAGAGGAUACUAUACAACCUACAUCCUCA, the “pre-steady-state target cleavage rate” value falls from 0.396 ± 0.045 to 0.108 ± 0.024.

Going from GGUCUGGAUACAAAACAACCUACUACCUCA to GGAGAGGAUACUAUACAACCUUCUACCUCA, the “pre-steady-state target cleavage rate” value falls from 0.885 ± 0.11 to 0.573 ± 0.025.
